Assays:
Test in all cases: cell-based or functional assay
[1] = biological target: T1, human beta klotho / human FGFR1c receptor complex on cells (human, UniProt Q86Z14 1-1044; P11362 22-822)
[2] = biological target: human beta klotho / human FGFR4 on L6 cells (human, UniProt Q86Z14 1-1044; P22455 22-802)
[3] = biological target: human beta klotho / human FGFR3c on L6 cells (human, UniProt Q86Z14 1-1044; P22607 23-806)
[4] = biological target: T1, human beta klotho / human FGFR1c …; remark: listed apart in the source

B1: FGF19 (ligand)
chain: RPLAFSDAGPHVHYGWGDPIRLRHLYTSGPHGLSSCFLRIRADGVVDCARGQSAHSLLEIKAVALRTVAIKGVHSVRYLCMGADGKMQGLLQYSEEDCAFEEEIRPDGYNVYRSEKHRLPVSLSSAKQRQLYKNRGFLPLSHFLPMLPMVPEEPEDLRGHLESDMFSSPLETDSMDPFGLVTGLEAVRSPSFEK
L6 huKLB/R1c reporter assay EC50 [1]: 2.66 nM | L6 huKLB/R4 reporter assay EC50 [2]: 0.05 nM | L6 huKLB/R3c reporter assay EC50 [3]: 2.1 nM | hAdip pERK assay EC50, Experiment - B [4]: 5.49 nM

Source: patent US20210030857A1 (NGM BIOPHARMACEUTICALS, published 2021)
